The list shows a part of the results. The full chains were built here from the parent and the listed change. Inactive controls read about 0.05.
B1: TEV protease; numbered along this chain (parent)
chain: MGESLFKGPRDYNPISSSICHLTNESDGHTTSLYGIGFGPFIITNKHLFRRNNGTLVVQSLHGVFKVKDTTTLQQHLVDGRDMIIIRMPKDFPPFPQKLKFREPQREERICLVTTNFQTKSMSSMVSDTSCTFPSGDGIFWKHWIQTKDGQCGSPLVSTRDGFIVGIHSASNFTNTNNYFTSVPKNFMELLTNQEAQQWVSGWRLNADSVLWGGHKVFMVKPEEPFQPVKEATQL

Variants of: B1
Test: raw area under fraction-flipped curve 0-4 h after induction (AUC4h, not background-subtracted), DNA-recorder readout of cleavage of the substrate (dimensionless); higher = more cleavage of the substrate by the protease variant
Conditions: temperature: 34 °C; time window: 0-4 h after rhamnose induction
Method: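 In vivo DNA recorder in E. coli TOP10(DE3) ΔrhaA at 34 °C. Each TEVp single-site mutant (parent TEVp 0) is paired with a single-site variant of the 7-mer TEVs (canonical ENLYFQ|S). The substrate sits between flexible linkers in a Bxb1-sfGFP-TEVs-SsrA fusion, so cleavage stabilises Bxb1 and speeds flipping of a recombination array, read by NGS. The value is the raw area under the fraction-flipped curve over 0-4 h after rhamnose induction (AUC4h), with ≥20 reads per time point. It is not background-subtracted; inactive controls average about 0.047.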
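Further: Bxb1 expression induced with 0.2% (w/v) L-rhamnose at OD600 near 0.5, cultures sampled hourly, flipped fraction per protease–substrate barcode pair counted by paired-end Illumina sequencing.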

Variant	area with substrate ENLAFQS	area with substrate ENLCFQS	area with substrate ENLDFQS	area with substrate ENLEFQS	area with substrate ENLFFQS	area with substrate ENLGFQS	area with substrate ENLHFQS	area with substrate ENLIFQS	area with substrate ENLKFQS	area with substrate ENLLFQS	area with substrate ENLMFQS	area with substrate ENLNFQS	area with substrate ENLPFQS	area with substrate ENLRFQS	area with substrate ENLSFQS	area with substrate ENLVFQS	area with substrate ENLQFQS	area with substrate ENLTFQS	area with substrate ENLWFQS
M188D	0.0623	0.0858	0.0531	0.0592	0.117	0.0673	0.0681	0.0902	0.0844	0.0627	0.0495	0.0604	0.0569	0.0569	0.0522	0.0867	–	–	–
V210T	0.0619	0.0548	0.0783	0.0558	–	0.0879	0.0568	0.0374	0.0582	–	–	0.0533	0.0765	–	0.0556	0.0656	0.0654	–	–
V210F	0.0598	–	–	0.0723	–	–	0.0679	0.0622	0.0691	0.0492	–	0.062	0.0518	0.0644	0.0664	–	0.0585	0.0482	0.0606
K185Q	0.0872	–	0.0661	–	0.111	–	0.0717	0.0739	0.0791	0.081	–	0.0648	0.0666	0.14	0.0691	0.0859	–	–	0.073
N186I	0.0508	0.0761	0.048	–	–	0.0709	0.0688	0.0761	0.0766	0.0667	–	0.0415	–	0.0617	–	–	–	–	–
Y179N	0.0557	–	0.0508	–	–	–	–	–	0.0635	–	–	0.0677	–	–	–	–	–	–	–
I164R	0.0611	0.0521	0.061	0.0547	0.0847	–	0.045	–	0.0652	–	–	0.063	–	0.0544	0.0571	0.052	0.055	–	0.0467
S182L	0.0653	0.0534	–	–	0.0618	–	0.0616	–	0.0508	0.0492	–	0.0566	0.0535	–	0.0518	–	–	0.05	0.0521
S182G	0.0507	0.0752	0.0673	–	0.0815	–	–	0.0823	–	–	–	0.038	–	–	0.0565	–	–	–	–
S182Q	0.0609	0.0503	0.064	0.0579	0.0467	–	0.0523	0.0511	0.0708	0.062	–	0.0612	0.0378	0.0681	0.0581	0.0721	–	–	0.0469
F173W	0.0533	–	0.0641	0.062	–	–	0.0683	–	0.0631	0.0668	–	0.0635	–	0.0607	0.0654	–	–	–	–
F173G	0.072	–	0.0602	0.0519	0.0643	–	0.0609	–	0.0651	0.0693	0.0521	0.0619	–	0.061	0.0567	0.0699	0.0407	–	–
T181R	0.0533	0.0239	0.0538	0.0673	0.0554	0.0715	0.0398	–	0.0527	0.0442	0.0483	0.0658	–	0.0485	0.0543	–	–	–	0.0464
A196Y	0.0628	–	0.056	–	0.0988	–	0.0882	–	–	0.0607	0.0855	–	–	0.0714	–	0.1	0.105	0.0654	0.0739
A196T	0.0744	0.0697	0.0492	0.0681	0.0813	0.0739	–	0.0736	–	0.078	–	0.0558	0.0717	0.061	0.0562	0.078	0.0712	–	0.0609
A196R	0.0894	–	–	–	–	–	–	–	0.0836	–	–	–	–	–	0.0443	0.0799	–	–	0.0455

Variant	area with substrate ENLAFQS	area with substrate ENLCFQS	area with substrate ENLDFQS	area with substrate ENLEFQS	area with substrate ENLFFQS	area with substrate ENLGFQS	area with substrate ENLHFQS	area with substrate ENLIFQS	area with substrate ENLKFQS	area with substrate ENLLFQS	area with substrate ENLMFQS	area with substrate ENLNFQS	area with substrate ENLPFQS	area with substrate ENLRFQS	area with substrate ENLSFQS	area with substrate ENLVFQS	area with substrate ENLQFQS	area with substrate ENLTFQS	area with substrate ENLWFQS
Q194M	0.0519	0.077	0.063	0.0735	0.101	–	0.0813	0.0702	0.077	0.0707	–	0.0703	–	0.0908	–	–	0.0736	–	–
Q197N	0.0658	–	–	0.0558	–	0.0667	–	–	0.0688	–	–	0.0607	–	–	–	0.0797	0.0861	–	–
M219K	0.083	0.0623	0.0596	0.0545	0.0818	–	–	0.0682	0.0632	0.0696	–	0.0622	–	–	0.0612	–	0.0568	–	0.0609
M219P	0.0623	0.064	0.08	0.0667	0.0623	–	–	0.0664	0.0541	–	–	0.0643	0.0493	0.0599	0.0608	0.0614	–	–	–
L205D	0.0648	0.0738	–	–	0.0691	–	0.0648	–	0.0664	0.0755	–	–	0.055	–	0.0496	–	–	–	0.0455
L205A	0.0544	–	0.0624	0.0695	0.0669	–	–	0.0705	0.0718	0.061	–	0.0536	–	–	0.0169	–	0.0579	–	0.0449
L205R	0.0624	–	0.0829	0.0324	0.0682	–	0.0809	–	–	0.0609	–	0.0609	0.0403	0.0423	–	0.0573	–	–	–
F180R	0.0471	0.0564	0.046	–	0.0582	–	0.0879	0.0406	0.0466	–	–	0.0647	–	–	0.0357	–	0.0487	–	0.0771
L211F	0.0712	0.0595	0.0543	0.0738	0.095	0.0697	0.0689	0.089	–	0.0671	0.0873	–	0.0769	–	–	0.092	0.0834	–	–
N177K	0.0634	0.0671	0.063	–	0.08	0.0638	0.0663	–	–	–	–	0.0588	0.0609	–	–	0.0751	–	–	–
L190E	0.0867	–	0.0613	0.0718	0.0761	–	0.0917	–	0.0721	0.0697	–	0.0683	–	0.0776	0.0558	0.0793	–	–	0.0731
L190C	0.061	0.0676	0.0719	–	–	0.0541	0.0732	0.081	0.0709	–	–	0.0864	0.0619	–	0.0613	0.1	–	–	–
W199I	0.0611	–	–	–	0.0557	–	–	–	–	0.0572	–	–	0.0512	–	–	0.0449	–	–	–
W199M	0.061	0.069	0.0753	0.0637	0.117	0.106	0.0549	0.0637	0.0698	–	–	0.0757	0.0474	0.0704	0.0603	–	0.0647	–	–
W199V	0.0513	0.0646	0.0689	–	0.0808	–	0.0696	0.0382	0.0807	0.0679	0.0669	0.0651	0.0646	–	0.0594	–	–	–	0.0483
